From PubChem BioAssay AID1963576 (National Center for Advancing Translational Sciences (NCATS), 2024)
Screen size: about 46,000 compounds; about 60 (0.1%) were called active. About 3% were inconclusive and are not listed. Calls follow the shape of the dose curve; as a rule, active = well fitted inhibition curve with a large enough effect; inconclusive = small, poorly fitted or top-dose-only effect; inactive = no such curve, though single readings can be large or run the other way. This is one part of the list.

test: Primary qHTS assay for Inhibitors of ovarian cancer metastasis using an organotypic tumor microenvironment (TME) model.; also: nearly all actives have a fitted effect of over 65% in size;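 as to activity change, negative = inhibition: plate controls were DMSO wells for no effect and tomatine positive control wells for full effect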; details: SKOV3ip1-GFP adhesion/invasion on 3D omental model, fluorescence; series mostly up to 45.8 µM; activity change, negative = inhibition: at the top concentration
Outline: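 qHTS, 4-pt dose (0.36-46 umol/L); SKOV3ip1-GFP, 1,200 cells/well, no FBS; primary omental fibroblast/mesothelial co-culture 48 h pre-grown; 2 h RT + 16 h 37 C; PBS wash, 4% PFA; GFP count 488/509 nm.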

Activity change, negative = inhibition, inactive:
Cc1ccc(CSc2nc3cccnc3n2Cc2ccc(C(=O)NCc3ccco3)cc2)cc1 -13.7%
Oc1ccc(Cl)cc1C1=Nc2ccccc2N=C(c2ccccc2)C1 -6.58%
Cc1cccc(-c2nc(CN3CCCC(C(=O)N4CCN(c5cc(Cl)ccc5C)CC4)C3)c(C)o2)c1 (stereo unspecified) -7.52%
O=C(c1ccc(F)cc1)c1cn(Cc2ccccc2F)c2cc3c(cc2c1=O)OCCO3 -3.19%
Cc1ccc(-c2nc3c(c(SCc4ccc(Br)cc4)n2)Cc2c(CO)cnc(C)c2O3)cc1 -23.1%
Cc1ccc2c(=O)cc(C(=O)Nc3ccc(S(=O)(=O)N(C)c4ccccc4)cc3)oc2c1C 2.22%
COc1ccc(CCNC(=O)CCc2c(C)c3cc4c(C)c(C)oc4cc3oc2=O)cc1OC -4%
O=C(Cn1ncn2c(cc3sccc32)c1=O)NCCc1ccccc1 8.74%
COc1ccccc1-c1nc2n(n1)C(c1ccccc1Cl)C(C(=O)Nc1cccnc1)=C(C)N2 (stereo unspecified) 13.8%
CCOc1ccccc1NC(=O)CSc1nnc2[nH]c(=O)cc(C)n12 5.31%
CCCCn1cc(S(=O)(=O)c2ccc(C)cc2)c(=O)c2cc(F)c(N3CCCCC3)cc21 6.81%
CC(C)(C)OC(=O)N1CCC(c2c(C(=O)NCc3ccccc3)cnn2-c2cccc(F)c2)CC1 4.78%
CCOC(=O)c1cnc2cc(C(F)(F)F)ccc2c1Nc1cc(C)ccc1OC 1.56%
CCOC(=O)c1ccc(NC2=CC(c3ccc(OCC)cc3)N(c3ccc(C(=O)OCC)cc3)C2=O)cc1 (stereo unspecified) -7.13%
Cc1ccc(-c2nc(CCNC(=O)c3ccc(C)c(C)c3)cs2)cc1 -2.62%
COc1ccc(C)cc1NC(=O)c1ccc(NS(=O)(=O)c2c(C)noc2C)cc1 4%
CCC(C(=O)Nc1cccc(Cl)c1C)n1nc(C)c2sc3ccccc3c2c1=O (stereo unspecified) -3.17%
COc1ccc(-c2noc(CN(C)S(=O)(=O)c3c(C)cc(C)cc3C)n2)cc1OC -8.48%
CC(=O)N1c2ccccc2C(=O)C1N1CCN(c2ccccc2F)CC1 (stereo unspecified) 6.83%
Cc1ccc(S(=O)(=O)c2c(O)cc(C)c(NS(=O)(=O)c3ccc(Br)cc3)c2C)cc1 12.7%
Cc1oc(-c2ccc(Cl)cc2)nc1CN1CCCC(C(=O)NCCc2ccc(Cl)cc2)C1 (stereo unspecified) 4.08%
O=C(CSc1nnc(-c2ccccc2Cl)o1)N1CCCc2ccccc21 -28.2%

outcome, inactive:
CSc1cccc(NC(=O)c2cnn(-c3ccc(F)cc3)c2-n2cccc2)c1
O=C(CSc1nc2c([nH]c3ccccc32)c(=O)n1-c1ccc(Cl)cc1)N1CCc2ccccc21
O=C(CSc1nc2ccccc2nc1Cc1ccc(Cl)cc1)Nc1ccc2c(c1)OCO2
COCCCNC(=O)C1CCN(Cc2cc3ccccc3n2Cc2ccccc2C)CC1
